# Experimental data published in PubChem BioAssay AID463173 (ICCB-Longwood Screening Facility, Harvard Medical School, 2010).
# Out of some 52,000 compounds screened, about 1,700 (3.3%) were called active. No stated cut-off is given here; in the data, active means survival mostly below about 52% (no sharp cut-off); inactive means mostly above about 56%. The list shows a part of the results.
# Test system: Wild type
# Experiment: growth inhibition of S. aureus wild type versus tarO mutant, primary screen, teichoic acid synthesis inhibitors, RN4220, OD600 (AID 463173)
# Settings: S. aureus RN4220 wild type/DeltatarO growth, OD600, 18 h, stronger effect = lower value, screened at 18.75 µg/mL (by protocol)
row,Compound,survival
1,COc1ccc(NC(=O)Nc2nnc(N(C)C3CCCCC3)s2)c(OC)c1,inactive: 73%
2,O=C(Nc1ccc(O)c(-c2nc3ccccc3o2)c1)c1ccco1,inactive: 79%
3,CCOC(=O)c1sc(NC(=O)COc2ccccc2Cl)c(C(=O)OCC)c1C,inactive: 99%
4,CC1CCN(C(=O)c2cc(-c3ccc(Cl)cc3)on2)CC1,inactive: 85%
5,Cc1ccccc1NC(=O)CSc1nc2c(oc3ccccc32)c(=O)n1-c1ccccc1F,inactive: 114%
6,Cc1cc(=O)n(CC(=O)O)c2ccccc12,inactive: 98%
7,CC1=C(C(=O)OCC2CCCCC2)C(c2c(F)cccc2Cl)CC(=O)N1 (stereo not drawn),inactive: 98%
8,CCOc1ccc(S(=O)(=O)N(CC(=O)N2CCCCC2)c2ccccc2)cc1,inactive: 105%
9,COCCNC(=O)c1cc(Sc2ccc(F)cc2F)nc2ccccc12,inactive: 79%
10,COc1cc(OC)c(NC(=O)Nc2ccccc2OCc2cc(=O)n3cc(C)ccc3n2)cc1Cl,inactive: 101%
11,COc1ccc(CCNC(=O)CCc2c(C)nc3nc(C)nn3c2C)cc1OC,inactive: 71%
12,CCc1ccc(S(=O)(=O)c2nnn3c2nc(NC2CCCC2)c2sccc23)cc1,inactive: 83%
13,COc1ccc(C)cc1NC(=O)CCS(=O)(=O)c1ccc2c(c1)CC(=O)N2C,inactive: 55%
14,CCOc1ccccc1NC(=O)CN1CCC(NC(=O)Nc2ccccc2)CC1,inactive: 92%
15,CC(=O)N1c2nc(-c3ccco3)nn2C2(CCCCC2)[C@@H]2CCCC[C@@H]21,inactive: 95%
16,COc1ccc(NC(=O)CN(C)S(=O)(=O)c2ccc3[nH]c4c(c3c2)CCCC4)cc1Cl,inactive: 75%
17,COc1ccc(-n2ccn(Cc3ccc(C)cc3)c(=O)c2=O)cc1OC,inactive: 94%
18,O=C(c1ccc2c(c1)N(Cc1ccc(F)cc1)C(=O)c1ccccc1S2(=O)=O)N1CCC(Cc2ccccc2)CC1,inactive: 86%
19,O=C(CSc1ccc2ccccc2n1)Nc1nsc(-c2ccc(Cl)cc2)n1,inactive: 68%
20,CC(=O)Nc1ccc(-c2nn[nH]n2)cc1,inactive: 106%
21,COc1ccc(Cn2c(SCc3ccc(C(=O)NCc4ccccc4F)cc3)nc3cccnc32)cc1,inactive: 67%
22,Cc1cccc(-n2c(=O)c3c(c4cc(C)ccc4n3C)n(Cc3ccccc3F)c2=O)c1,inactive: 153%

row,Compound,survival
1,COc1ccc(CNC(=O)c2cccc(NC(=O)N3CCSc4ncccc43)c2)cc1,inactive: 67%
2,Cc1ccc(Cl)cc1N1C(=O)N(Cc2ccc(C#N)cc2)c2ccccc2S1(=O)=O,inactive: 55%
3,COc1ccc(C2=Nc3ccc(C)cc3NC(c3ccc(Cl)cc3)=N2)cc1,inactive: 72%
4,COc1ccc(Cl)cc1NC(=O)CCCn1c(C)c2cnn(-c3ccccc3)c(=O)c2c1C,inactive: 78%
5,COc1ccc(-c2noc(N3CCC(C(=O)Nc4ccc(C)c(F)c4)CC3)n2)cc1OC,inactive: 82%
6,COc1cccc(Cn2c(=O)n(-c3ccc(Br)cc3F)c(=O)c3sc4ccccc4c32)c1,inactive: 76%
7,COc1ccc(NC(=O)CCNS(=O)(=O)c2cccc3nsnc23)cc1OC,inactive: 80%
8,COc1ccc(N(Cc2ccccc2)C(=O)c2nc(SC)ncc2Cl)cc1,inactive: 113%
9,CCOc1cccc2cc(-c3nc4sc5c(c4c(=O)[nH]3)CCC(C)C5)c(=O)oc12 (stereo not drawn),inactive: 119%
10,CCCCNC(=O)CSc1nc2ccccc2nc1Cc1ccc(Cl)cc1,inactive: 146%
11,Cc1ccc(NC(=O)CC2Nc3cccc4cccc(c34)NC2=O)cc1 (stereo not drawn),inactive: 95%
12,CCCOc1cccc(C(=O)N(Cc2cc(OC)c(OC)c(OC)c2)C2CCS(=O)(=O)C2)c1 (stereo not drawn),inactive: 83%
13,Cc1ccc2nc(N(CCCN(C)C)C(=O)c3ccc(Br)s3)sc2c1,inactive: 90%
14,O=C(c1cnn2c(C(F)F)cc(-c3ccccc3)nc12)N1CCc2ccccc21,inactive: 95%
15,Cc1ccc(OCCn2nnc3sc4c(c3c2=O)CCC(C(C)(C)C)C4)cc1 (stereo not drawn),inactive: 93%
16,CC(C)c1ccc(NC(=O)c2cccn2-c2nnc(N3CCCCC3)s2)cc1,inactive: 88%
17,CCn1c(CN2CCC(C)CC2)nc2cc(NC(=O)COc3ccc([N+](=O)[O-])cc3)ccc21,inactive: 86%
18,Cc1cccc(-n2ncc(C(=O)N3CCC(C)CC3)c2C2CCN(C(=O)OC(C)(C)C)CC2)c1,inactive: 82%
19,CCOC(=O)c1cccc(NC(=O)CCCn2c(C)c3cnn(-c4ccccc4)c(=O)c3c2C)c1,inactive: 77%
20,Cc1ccc(NC(=O)c2cc3c(=O)[nH]c4ccccc4c3n2C)cc1F,inactive: 82%
21,CCCCn1c(CNC(=O)c2ccc(OC)cc2)nnc1SCC(=O)Nc1ccccc1,inactive: 81%
22,Cc1ccc(CNC(=O)CCC(=O)N2CC(C)Sc3ccccc32)cc1 (stereo not drawn),inactive: 77%

row,Compound,survival
1,COc1ccc(CCNC(=O)NCc2noc3ccc(C)cc23)c(OC)c1,inactive: 93%
2,CCN(CC)c1cc2c(cc1F)c(=O)c(S(=O)(=O)c1ccccc1)cn2Cc1ccccc1,inactive: 73%
3,CC(=O)c1cccc(NS(=O)(=O)c2c(C)nc3sc(C)cn3c2=O)c1,inactive: 92%
4,CCOC(=O)c1c(S(=O)(=O)NCC(=O)N2CCN(c3ccccc3OC)CC2)c(C)n(C)c1C,inactive: 85%
5,Cc1cc(C)c(/C=C/c2onc(C)c2S(=O)(=O)N2CCC(C(=O)N3CCN(c4ccccc4)CC3)CC2)c(C)c1,inactive: 69%
6,COC(=O)c1ccc(Cn2c(SCc3cccc(C)c3)nc3ccncc32)cc1,inactive: 105%
7,CCOC(=O)c1sc2ncn(CC(=O)Nc3ccc(C)cc3C)c(=O)c2c1C,inactive: 92%
8,COc1ccc(S(=O)(=O)N(CC(=O)N2CCC(C)CC2)c2ccc(C)cc2)cc1,inactive: 89%
9,COc1ccccc1-c1nn(CCC(=O)Nc2cccc(C(C)=O)c2)c2nc(C)cc(C)c12,inactive: 99%
10,Cc1ccc(-c2ccc(=O)n(C(C)C(=O)Nc3ccccc3Cl)n2)cc1C (stereo not drawn),inactive: 76%
11,COc1cccc(NC(=O)c2cn(C3CCCCC3)c(=O)c3c2c2ccccc2n3C)c1,inactive: 71%
12,CCCCNC(=O)C(CC)Sc1nnc(-c2ccc(OC)c(OC)c2)c(-c2ccc(OC)c(OC)c2)n1 (stereo not drawn),inactive: 78%
13,CC1CCc2nc3ncn(CC(=O)Nc4cccc(C#N)c4)c(=O)c3cc2C1 (stereo not drawn),inactive: 87%
14,Cc1cc(N2CCC(C)CC2)nc2ccc(NC(=O)CCC(=O)N3CCN(c4cccc(C(F)(F)F)c4)CC3)cc12,inactive: 64%
15,CCc1ccccc1Nc1nn2c(=O)c3ccc(C(=O)Nc4cc(C)cc(C)c4)cc3nc2s1,inactive: 68%
16,O=S(=O)(Nc1ccc(-c2ccc(N3CCCC3)nn2)cc1)c1ccc(Br)cc1,inactive: 87%
17,COc1ccc(C(=O)NCC(c2cccs2)S(=O)(=O)c2ccc(C)cc2)cc1 (stereo not drawn),inactive: 143%
18,CCOC(=O)c1cnc(-c2ccccc2)nc1Nc1ccc(C)cc1,inactive: 111%
19,Cc1cc(F)ccc1NC(=O)c1sc2nc(-c3cccs3)ccc2c1N,inactive: 78%
20,Cc1nn(C)c2c1c(C(F)(F)F)cc(=O)n2CC(=O)NCc1ccccc1Cl,inactive: 74%
21,Cc1ccc(NS(=O)(=O)c2ccc3c(c2)NC(=O)CCS3)c(Br)c1,active: -3%
22,O=C(NCc1ccccc1Cl)C1CCCN1C(=O)NCc1ccccc1 (stereo not drawn),inactive: 106%

row,Compound,survival
1,Cc1ccc(CC(=O)Nc2c(C(=O)N3CCN(c4ccccc4F)CC3)oc3ccccc23)cc1,inactive: 79%
2,CCc1cccc(CC)c1NC1=NS(=O)(=O)c2ccccc21,inactive: 66%
3,CC(C)OCCCN1C(=O)c2[nH]nc(-c3ccccc3O)c2C1c1ccc(OCc2ccccc2)cc1 (stereo not drawn),inactive: 44%
4,CCOc1ccccc1NC(=O)C(C)Sc1nc2c(c(=O)[nH]1)CCCC2 (stereo not drawn),inactive: 79%
5,COc1ccc(-c2cc(C(=O)Nc3c(C)nn(Cc4ccc(F)cc4)c3C)no2)cc1OC,inactive: 79%
6,CCOCCCNC(=O)CCc1nnc2ccc(N3CCN(c4cccc(OC)c4)CC3)nn12,inactive: 97%
7,CCOC(=O)c1ccccc1NC(=O)CCc1c(C)nc2ncnn2c1C,inactive: 85%
8,Cc1ccc(NCc2nnc3n2CCCCC3)cc1Cl,inactive: 124%
9,Cc1oc(-c2ccccc2)nc1CNC(=O)Nc1ccccc1,inactive: 64%
10,CCOC(=O)C1=C(CN2CCC(C(=O)OCC)CC2)NC(=O)NC1c1ccc(Cl)cc1 (stereo not drawn),inactive: 117%
11,O=C(N/N=C/c1cccc2c1OCCO2)c1ccc(CN2CCOCC2)cc1,inactive: 110%
12,Cc1ccc2c(=O)cc(C(=O)Nc3nnc(C)s3)oc2c1,inactive: 76%
13,CN1C(C(=O)Nc2ccc(F)cc2F)=CC(c2cccs2)=NS1(=O)=O,inactive: 106%
14,CCn1nc(-c2ccccc2)c(-c2ccccc2)c(C(=O)OCCOC)c1=O,inactive: 93%
15,CC(C(=O)NCc1ccco1)N1CCN(C)CC1 (stereo not drawn),inactive: 106%
16,CC(C)N(C(=O)Cn1cc(S(=O)(=O)Cc2ccc(C(F)(F)F)cc2)c2ccccc21)C(C)C,inactive: 75%
17,COc1ccc2[nH]c(=O)c(CN(C(=O)Nc3ccccc3)C3CCCC3)cc2c1,inactive: 103%
18,Cc1ccc(Nc2c(-c3ccccc3O)nc3ccc(Br)cn23)cc1,inactive: 101%
19,CC1CCCC(C)N1C(=O)CSc1ccc(-c2ccc3c(c2)OCCO3)nn1 (stereo not drawn),inactive: 100%
20,CCOc1ccc(S(=O)(=O)N2CCN(c3ccccc3)CC2)cc1C(N)=O,inactive: 186%
21,Cc1ccc(CN(C(=O)COc2ccc(C)c(C)c2)C2CCS(=O)(=O)C2)o1 (stereo not drawn),inactive: 86%
22,COc1ccc2c(Sc3ccc(Cl)cc3)c(C(=O)NCCCN3CCCCC3)[nH]c2c1,active: -1%
